In PubChem BioAssay AID463173 (ICCB-Longwood Screening Facility, Harvard Medical School, 2010):
About 4,300 (8.3%) of roughly 52,000 compounds were called active. Cut-off read from the data, not from the text of the source: active = survival mostly below about 52% (no sharp cut-off); inactive = mostly above about 56%. The list shows a part of the results.

tested on: DeltatarO mutant; experiment: S. aureus survival, RN4220 and DeltatarO strains – OD600, teichoic acid synthesis inhibitors, primary screen (AID 463173); details: S. aureus RN4220 wild type/DeltatarO growth, OD600, 18 h, active compounds read low, screened at 18.75 µg/mL (by protocol)

Structure (SMILES) | survival
CCOC(=O)c1c(C)c(-c2ccccc2)n(CC(=O)NC2CCCCC2)c1C | inactive: 114%
COc1cc(OC)c(OC)cc1CN1CCN(S(=O)(=O)c2ccc(NC(C)=O)cc2)CC1 | inactive: 79%
Cc1cccc(-c2nnc(C3CCN(S(=O)(=O)c4cccc(Cl)c4)CC3)o2)c1 | inactive: 70%
COc1cc(C2NC(=O)c3c(sc4c3CCN(C)C4)N2)cc(OC)c1OC (stereo not drawn) | inactive: 53%
CCOc1cc2[nH]c(=O)n(Cc3ccc(C(=O)N4CCN(c5cccc(Cl)c5)CC4)cc3)c(=O)c2cc1OCC | inactive: 80%
CCc1ccc(CNC(=O)C2CCN(c3nn4cc(-c5ccc(F)cc5)nc4s3)CC2)cc1 | inactive: 78%
CCc1ccc(NC(=O)C2CCN(c3nn4c(=O)cc(C)nc4s3)CC2)cc1 | inactive: 101%
Clc1ccc(-c2noc3ncnc(NCCc4ccccc4)c23)cc1 | inactive: 78%
O=C(Nc1ccc2c(c1)CCCN2C(=O)c1cccs1)c1ccccc1Cl | inactive: 70%
CCC(=O)Nc1nnc(C(C)(C)C)s1 | active: 51%
CCOC(=O)c1c(C)[nH]c(C)c1S(=O)(=O)N1CCCC(C(=O)N2CCN(c3cccc(C)c3C)CC2)C1 (stereo not drawn) | inactive: 102%
COc1ccc(Cl)cc1NC(=O)c1nn(-c2ccc(C)cc2)c(=O)n(C)c1=O | inactive: 80%
COc1cc(NC(=O)Cn2cnc(S(=O)(=O)N3CCCC3)c2)cc(OC)c1OC | inactive: 98%
Cc1cccc(CNC(=O)CS(=O)(=O)c2cccc3nsnc23)c1 | inactive: 78%
CCN(C(=O)c1cnc2ccc(C)cn2c1=O)c1ccccc1 | inactive: 102%
CCOC(=O)C1CCN(C(c2cccc(F)c2)c2c(O)cc(C)n(CCOC)c2=O)CC1 (stereo not drawn) | inactive: 135%
COCCNC(=O)c1cnc2sc(N3CCC(C)CC3)nn2c1=O | inactive: 86%
CCC(=O)N(CCC(c1ccccc1)c1ccc2c(c1)OCO2)Cc1ccc(OC(C)C)cc1 (stereo not drawn) | active: 0%
CCOC(=O)c1c(NC(=O)c2ccc(S(=O)(=O)N(CC(C)C)CC(C)C)cc2)sc2c1CCN(C(=O)OCC)C2 | inactive: 124%
COc1ccc(Cl)cc1NC(=O)c1sc2nc3n(c(=O)c2c1C)CCC3 | inactive: 76%
COc1ccc(NC(=O)CSc2nnc(-c3nonc3NC(C)=O)n2-c2ccccc2)cc1 | active: 60%
CCCN(C(=O)Cn1cnc2onc(-c3ccc(F)cc3)c2c1=O)c1cccc(Cl)c1 | inactive: 122%

Structure (SMILES) | survival
CCC(Sc1nc2ccccc2c(=O)n1CCc1ccc(OC)c(OC)c1)C(=O)N(CC)CC (stereo not drawn) | inactive: 102%
CCOc1ccc(CCNS(=O)(=O)c2cc(Br)cc3c2N(C(C)=O)CC3)cc1OCC | inactive: 103%
Cc1cc(C)n(-c2nc3ccccc3nc2Nc2cccc(C)c2C)n1 | active: 21%
COc1cc(OC)c(Nc2nc3ccc(C(=O)c4ccccc4)cc3n3c(C)nnc23)cc1Cl | inactive: 94%
O=c1nc2n(-c3ccccc3F)c3ccccc3cc-2c(=O)[nH]1 | inactive: 78%
O=C(Nc1ccc(OC(F)(F)F)cc1)c1cc2ccccn2n1 | inactive: 74%
CCCCn1cc2c(c1-c1ccc(Cl)cc1)c(=O)n(C)c(=O)n2C | inactive: 76%
Cc1cc(C)cc(NS(=O)(=O)c2cc3c(cc2C)NC(=O)CO3)c1 | inactive: 89%
Cc1ccc(-n2ncc(C(=O)NCc3ccco3)c2C2CCN(C(=O)OC(C)(C)C)CC2)c(C)c1 | active: 25%
Cc1ccc(-n2ncc3c(NC4CCCCCC4)ncnc32)cc1Cl | inactive: 66%
CCOC(=O)C1=C(C)N=C2SCCC(=O)N2C1c1ccc(OCc2ccccc2)cc1 (stereo not drawn) | inactive: 122%
O=C(CSc1nnc(-c2cccs2)o1)N1c2ccccc2CCc2ccccc21 | inactive: 70%
Cc1nonc1NC(=O)CNC1CCCCC1 | inactive: 79%
COc1ccc(S(=O)(=O)NCCc2csc(-c3ccc(F)cc3)n2)cc1F | inactive: 91%
CCCCN(CCCNC(=O)c1cc(Nc2ccc(OC)c(OC)c2)nc2ccccc12)Cc1ccccc1 | inactive: 68%
CCN(CC)C(=O)CSc1nc(C)cc(=O)[nH]1 | inactive: 94%
Cc1occc1-c1nnc(SCC(=O)N2CCCC(C)C2)n1CC1CCCO1 (stereo not drawn) | inactive: 80%
COC(=O)c1c(NC(=O)CCCOc2cccc(C)c2)sc2c1C(C(=O)OC)CC2 (stereo not drawn) | active: 0%
CCN(CC)C(=O)Cn1c(=O)n(Cc2ccc(C(=O)NCCc3ccc(OC)c(OC)c3)cc2)c(=O)c2ccccc21 | inactive: 104%
CCc1ccc(CN(Cc2cn[nH]c2-c2ccc(OC)cc2)C(=O)Nc2cc(Cl)ccc2OC)cc1 | inactive: 58%
CC(=O)c1cccc(NC(=O)C2CCN(S(=O)(=O)c3ccc4c(c3)oc(=O)n4C)CC2)c1 | inactive: 99%
O=c1[nH]c2cc3c(cc2cc1C(c1nnnn1C1CCCC1)N1CCc2ccccc21)OCCO3 (stereo not drawn) | inactive: 64%

Structure (SMILES) | survival
CCC(SC1=NCCS1)C(=O)Nc1ccccc1OC (stereo not drawn) | inactive: 86%
CCOC(=O)c1cccc(NC(=O)CCn2c(-c3ccc(F)cc3)cc(C(=O)OCC)c2C)c1 | inactive: 76%
O=C(CSCc1ccccc1Cl)N1CCN(c2ccc(Cl)cc2)CC1 | inactive: 92%
COc1c(C)cccc1C(=O)Nc1cccc2ccc(C)nc12 | active: -1%
CCCS(=O)(=O)N1CC(=O)N(c2ccc(Cl)cc2C)C(C)(C(=O)NC2CCCC2)C1 (stereo not drawn) | inactive: 122%
O=C1CN=C(Nc2ccccc2Cl)N1Cc1ccccc1 | inactive: 110%
O=C(CSc1nc2sc3c(c2c(=O)[nH]1)CCCC3)NCc1cccs1 | inactive: 95%
COc1cc2nc(NC(=O)c3ccc(S(=O)(=O)N4CCOCC4)cc3)sc2cc1OC | inactive: 92%
CC(=O)N1CCN(c2ccccc2F)CC1 | inactive: 107%
Cc1ccc(OC(=O)c2ccc3snnc3c2)cc1 | inactive: 115%
COc1ccc(NC(=O)CSC2=Nc3ccccc3C3=NC(CCC(=O)NC4CCCCC4)C(=O)N23)cc1 (stereo not drawn) | inactive: 74%
CCOc1cc(CNC(=O)c2ccc3c(c2)NC(=O)C2CCCCN32)cc(OCC)c1OCC (stereo not drawn) | inactive: 107%
Cc1ccc(Cl)cc1N1CCN(C(=O)c2ccc3c(c2)N(Cc2ccc(F)cc2)CCS3)CC1 | inactive: 73%
Nc1nn(-c2ccccc2)nc1NC=O | inactive: 95%
COc1ccc(CN(C(=O)CSc2nnc(-c3ccc(OC)c(OC)c3)o2)c2ccc(F)cc2)cc1 | inactive: 101%
Cc1cn2c(=O)cc(COC(=O)c3ccc(NC(=O)COc4ccccc4F)cc3)nc2s1 | inactive: 89%
CCOc1ccccc1OCCCn1c(-c2ccc(Cl)cc2)nc2ccccc2c1=O | inactive: 42%
Cc1cc(C)cc(-n2c(-c3ccccc3)c(C)n3c4c(=O)n(C)c(=O)n(C)c4nc23)c1 | inactive: 88%
CC1CCCCN1S(=O)(=O)c1ccc(S(=O)(=O)NCc2ccc(F)cc2)cc1 (stereo not drawn) | inactive: 88%
COc1ccc(Cn2ccn(Cc3cccc(OC)c3)c(=O)c2=O)cc1 | active: 46%
Cc1cccc(NC(=O)N2CC(=O)Nc3sc4c(c3C2c2ccccc2)CCCC4)c1C (stereo not drawn) | inactive: 71%
Cc1ccccc1CN1CCC(CNC(=O)c2c(C)oc3ncnc(N4CCCCC4)c23)CC1 | inactive: 82%

Structure (SMILES) | survival
CCN1C(=O)c2ccccc2S(=O)c2ccc(C(=O)N3CCN(c4cc(Cl)ccc4C)CC3)cc21 (stereo not drawn) | inactive: 64%
CCC(Sc1nc(-c2ccccc2F)nc2c1Cc1c(CO)cnc(C)c1O2)C(=O)Nc1cc(C)ccc1C (stereo not drawn) | inactive: 63%
CCOc1ccc(CCNC(=O)C2=C(C)C(=O)OC23CCCCC3)cc1 | inactive: 89%
Fc1ccc(-c2noc3ncnc(NCc4ccc(Cl)cc4)c23)cc1 | inactive: 84%
O=C(CCn1c(=O)c2cccn2c2cccnc21)NCc1ccc(F)cc1 | inactive: 87%
CN(Cc1ccccc1)C(=O)c1ccc2c(c1)N(Cc1ccccc1Cl)C(=O)c1ccccc1S2 | inactive: 78%
COc1cc(C(=O)NCC(c2cccs2)S(=O)(=O)c2cccs2)cc(OC)c1OC (stereo not drawn) | inactive: 94%
Cc1cc(=O)n(CC(=O)N2CCN(c3ccccc3F)CC2)c2c1c(C)nn2C | inactive: 69%
CCc1ccccc1NC(=O)c1cnc(N2CCCCC2)c2ccccc12 | inactive: 96%
CCOc1ccc(CCNC(=O)Cn2nc(CC)n3c(cc4ccccc43)c2=O)cc1 | inactive: 99%
COc1ccc(-c2c3c(=O)n(C)c(=O)n(C)c3c3n2-c2ccccc2NC3c2ccco2)cc1 (stereo not drawn) | inactive: 50%
Cc1ccc(S(=O)(=O)N(C)c2c(C)ccc(S(=O)(=O)n3nc(C)cc3C)c2C)cc1 | inactive: 96%
CCOC(=O)c1[nH]c(C)c(CCC(=O)Nc2cc(C)ccc2OC)c1C | inactive: 89%
O=C(COc1ccccc1)Nc1ccc2nc(SCCOc3ccccc3)sc2c1 | inactive: 85%
CCCc1nnc(SCC(=O)N2CCCC2)n1CCOC | inactive: 87%
CCOC(=O)c1c(C)[nH]c(C)c1S(=O)(=O)N(C)CC(=O)Nc1ccc(C)cc1C | inactive: 95%
Cc1ccc(NC(=O)Cn2c(=O)n(CC3CCCO3)c(=O)c3ccccc32)cc1 (stereo not drawn) | inactive: 102%
Cc1cc(C)c2oc(-c3cccc(NC(=O)COc4ccc([N+](=O)[O-])cc4)c3)nc2c1 | inactive: 63%
Cc1ccc(Cl)cc1N1CCN(C(=O)c2ccc(CS(=O)(=O)c3ccccc3C)o2)CC1 | inactive: 50%
COc1cc(C2CC(=O)Oc3c2c(=O)n(C)c2ccccc32)ccc1O (stereo not drawn) | inactive: 58%
COc1ccc(C(=O)NC2(C(F)(F)F)C(=O)Nc3c2c(=O)[nH]c(=O)n3CCc2ccc(OC)c(OC)c2)cc1 (stereo not drawn) | inactive: 79%
O=C(CS(=O)(=O)c1cccc2nsnc12)N1CCN(c2ccc(F)cc2)CC1 | inactive: 69%
